Laboratory results from the antibiotic and cytotoxicity screens of Wong et al. (2023).
This is one part of the list.

Each compound was assayed on HSkMC (human skeletal muscle cells) (assay: cytotoxicity call (relative viability < 0.9)). Conditions: 10 µM.

Row | Structure (SMILES) | cytotoxicity call
1 | CCCCOc1cc(C(=O)NCCN(CC)CC)c2ccccc2n1.Cl | inactive
2 | C[C@@H]1CN([C@@H](C)CO)C(=O)CCCn2nncc2CO[C@H]1CN(C)C(=O)Nc1ccc(C(C)(C)C)cc1 | inactive
3 | C[C@H](CO)N1C[C@H](C)[C@@H](CN(C)Cc2cccc(C(F)(F)F)c2)OCc2ccccc2-c2ccccc2C1=O | inactive
4 | C[C@@H]1CCCCO[C@@H](CN(C)CC2CC2)[C@@H](C)CN([C@H](C)CO)C(=O)c2cc(NC(=O)CCC(F)(F)F)ccc2O1 | inactive
5 | C[C@H](CO)N1C[C@H](C)[C@H](CN(C)Cc2ccc(C(=O)Nc3ccccc3N)cc2)Oc2ccc(NC(=O)C3CCCCC3)cc2CC1=O | inactive
6 | O=C1N[C@H](Cc2c[nH]c3ccccc23)COC(=O)[C@@H](Cc2ccc(F)cc2)CC=CC[C@@H]1CC(=O)N(CCO)Cc1ccccc1 | inactive
7 | C[C@H](CO)N1C[C@H](C)[C@@H](CN(C)C(=O)Nc2ccc(-c3ccccc3)cc2)OCc2ccccc2-c2c(n(C)c3ccccc23)C1=O | inactive
8 | Cc1noc(C)c1NC(=O)N(C)C[C@@H]1Oc2ccc(NS(=O)(=O)c3ccccc3)cc2CC(=O)N([C@H](C)CO)C[C@@H]1C | inactive
9 | Cc1ccc(S(=O)(=O)N(C)C[C@H]2Oc3c(NS(=O)(=O)c4cn(C)cn4)cccc3C(=O)N([C@H](C)CO)C[C@H]2C)cc1 | inactive
10 | CC(C)NC(=O)Nc1ccc2c(c1)C(=O)N(C)[C@@H]1CC[C@@H](CC(=O)NCc3ccc(F)cc3)O[C@@H]1CO2 | inactive
11 | C[C@H](CO)N1C[C@H](C)[C@@H](CN(C)C(=O)Nc2ccc3c(c2)OCO3)Oc2ccc(NC(=O)CCCN(C)C)cc2C1=O | inactive
